In all, about 81,000 sequences were measured (“one-hybrid fitness for binding parS DNA”: median about -0.17, highest 2% from about 0.51 on). This is one part of the list. A value given as a limit tells only on which side of the number the result lay.

The labels stand for the following.
B1: Caulobacter ParB omega fusion; a variant is named by its letters at X, in order, B8GW30 (parent)
chain: MESVVVGEPGMSEGRRGLGRGLSALLGEVDAAPAQAPGEQLGGSREAPIEILQRNPDQPRRTFREEDLEDLSNSIREKGVLQPILVRPSPDTAGEYQIVAGERAWRAAQRAGLKTVPIMVRELDDLAVLEIGIIENVQRADLNVLEEALSYKVLMEKFERTQENIAQTIGKSXSHVANXMRLLXLPDEVQSYLVSGELTAXHARAIAAAADPVALAKQIIEGGLSVRETEALARKAPNLSAGKSKGGRPPRVKDTDTQALESDLSSVLGLDVSIDHRGSTGTLTITYATLEQLDDLCNRLTRGI

This experiment covers variants of B1. The experiment in a line: one-hybrid fitness for binding parS DNA (scaled: cognate 1, non-cognate 0); higher = stronger binding. Particulars: with parS DNA site. Put shortly: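 Bacterial one-hybrid selection in E. coli USO rpoZ- hisB- pyrF- with a HIS3 reporter carrying the site 19 bp from the promoter, screening Caulobacter ParB libraries with four specificity codons randomised (NNS). Cells grew 48 hours at 37°C on M9-minus-histidine plus 0.1 mM IPTG and 5 mM 3-AT. Plasmids before and after selection were Illumina-sequenced, three replicate libraries pooled, and variants under 10 reads dropped. Fitness is the log change in variant-to-wild-type read ratio, rescaled to cognate 1, non-cognate 0.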
On to CPED, for which the “one-hybrid fitness for binding parS DNA” value is at most 0.2. For the variant DVFS, the “one-hybrid fitness for binding parS DNA” value was found to be 0.259. To HITL belongs at most 0.2. For the variant LSTQ, the “one-hybrid fitness for binding parS DNA” value was at most 0.2. For the variant IMLC, the “one-hybrid fitness for binding parS DNA” value was at most 0.2. To QGPG belongs at most 0.2; to RNLI, at most 0.2. On to WIYS, for which the “one-hybrid fitness for binding parS DNA” value was at most 0.2. As to QMYE, the “one-hybrid fitness for binding parS DNA” value is at most 0.2.

As to VKVA, the “one-hybrid fitness for binding parS DNA” value was at most 0.2. NPSM: the “one-hybrid fitness for binding parS DNA” value was at most 0.2. As to HPAA, the “one-hybrid fitness for binding parS DNA” value was at most 0.2. To GRFR belongs at most 0.2.

Take RWVK: the “one-hybrid fitness for binding parS DNA” value is at most 0.2. On to VIRN, for which the “one-hybrid fitness for binding parS DNA” value was at most 0.2. The figure for SWVS is at most 0.2; for YCNN it is at most 0.2. Consider AKER, for which the “one-hybrid fitness for binding parS DNA” value is at most 0.2. As for GWYR, the “one-hybrid fitness for binding parS DNA” value was at most 0.2. Consider GKYI, for which the “one-hybrid fitness for binding parS DNA” value is at most 0.2. Consider MLWG, for which the “one-hybrid fitness for binding parS DNA” value was at most 0.2. Turning to VRRS, the “one-hybrid fitness for binding parS DNA” value is at most 0.2.

In the case of NFVG, the “one-hybrid fitness for binding parS DNA” value is at most 0.2. As to LSGM, the “one-hybrid fitness for binding parS DNA” value is at most 0.2.

Turning to VYLF, the “one-hybrid fitness for binding parS DNA” value is at most 0.2.

On to THNR, for which the “one-hybrid fitness for binding parS DNA” value is at most 0.2. Consider DPIM, for which the “one-hybrid fitness for binding parS DNA” value is at most 0.2. Take LQSW: the “one-hybrid fitness for binding parS DNA” value is at most 0.2. On to YLGS, for which the “one-hybrid fitness for binding parS DNA” value was at most 0.2. The figure for KSKF is at most 0.2; for PRIE it is at most 0.2; for WLMT it is at most 0.2. Consider RRDL, for which the “one-hybrid fitness for binding parS DNA” value is at most 0.2.

Turning to RPGR, the “one-hybrid fitness for binding parS DNA” value is at most 0.2.

As for PLRR, the “one-hybrid fitness for binding parS DNA” value was at most 0.2. For the variant SNTD, the “one-hybrid fitness for binding parS DNA” value is at most 0.2.

In the case of PSMS, the “one-hybrid fitness for binding parS DNA” value was at most 0.2. For the variant HLVE, the “one-hybrid fitness for binding parS DNA” value is at most 0.2. On to RTMY, for which the “one-hybrid fitness for binding parS DNA” value was 0.452.

As for YVYC, the “one-hybrid fitness for binding parS DNA” value was at most 0.2. Consider RQQF, for which the “one-hybrid fitness for binding parS DNA” value turned out to be 0.28.

With CVPR, the “one-hybrid fitness for binding parS DNA” value is at most 0.2. Consider FGKY, for which the “one-hybrid fitness for binding parS DNA” value is at most 0.2.

As to SVCN, the “one-hybrid fitness for binding parS DNA” value is at most 0.2. For PIPR, the “one-hybrid fitness for binding parS DNA” value was at most 0.2.

For WTKC, the “one-hybrid fitness for binding parS DNA” value is at most 0.2. As to VTQG, the “one-hybrid fitness for binding parS DNA” value was at most 0.2. For FMST, the “one-hybrid fitness for binding parS DNA” value was at most 0.2. NRKY: the “one-hybrid fitness for binding parS DNA” value was at most 0.2. The figure for QPVQ is at most 0.2; for RCKF it is 0.541. For DFER, the “one-hybrid fitness for binding parS DNA” value was at most 0.2.

Turning to APNL, the “one-hybrid fitness for binding parS DNA” value was at most 0.2.

Regarding QYNN, the “one-hybrid fitness for binding parS DNA” value was at most 0.2. In the case of PWTA, the “one-hybrid fitness for binding parS DNA” value is at most 0.2. On to VHGC, for which the “one-hybrid fitness for binding parS DNA” value is at most 0.2.

Regarding RKQM, the “one-hybrid fitness for binding parS DNA” value is at most 0.2. Consider TDAW, for which the “one-hybrid fitness for binding parS DNA” value was 0.252. As to TRQG, the “one-hybrid fitness for binding parS DNA” value is at most 0.2.

Take ITRL: the “one-hybrid fitness for binding parS DNA” value is at most 0.2. MLPC: the “one-hybrid fitness for binding parS DNA” value is at most 0.2. Turning to QQYW, the “one-hybrid fitness for binding parS DNA” value was at most 0.2. The figure for RPRH is at most 0.2; for PGKK it is at most 0.2.

As to GQYR, the “one-hybrid fitness for binding parS DNA” value is at most 0.2. Turning to AAMS, the “one-hybrid fitness for binding parS DNA” value was at most 0.2. To VTMC belongs at most 0.2. For RDPQ, the “one-hybrid fitness for binding parS DNA” value was at most 0.2. Regarding ISEV, the “one-hybrid fitness for binding parS DNA” value is at most 0.2. To GIYT belongs at most 0.2.

Take VQHW: the “one-hybrid fitness for binding parS DNA” value was at most 0.2. Take QNKP: the “one-hybrid fitness for binding parS DNA” value was at most 0.2. As to HMNC, the “one-hybrid fitness for binding parS DNA” value is at most 0.2. The figure for MPEG is at most 0.2. For YHDY, the “one-hybrid fitness for binding parS DNA” value was at most 0.2.

In the case of MDNR, the “one-hybrid fitness for binding parS DNA” value is at most 0.2. In the case of PEAC, the “one-hybrid fitness for binding parS DNA” value was at most 0.2. REIC: the “one-hybrid fitness for binding parS DNA” value was at most 0.2.

Consider PHKH, for which the “one-hybrid fitness for binding parS DNA” value is at most 0.2. With IFSS, the “one-hybrid fitness for binding parS DNA” value is at most 0.2.

As to LLAK, the “one-hybrid fitness for binding parS DNA” value is at most 0.2. On to ICQC, for which the “one-hybrid fitness for binding parS DNA” value was at most 0.2. Consider VFPN, for which the “one-hybrid fitness for binding parS DNA” value was at most 0.2. To TVQV belongs at most 0.2. The figure for RSKL is at most 0.2; for TGRT it is at most 0.2; for QNHL it is at most 0.2. Take LWYR: the “one-hybrid fitness for binding parS DNA” value is at most 0.2.

Regarding TGEG, the “one-hybrid fitness for binding parS DNA” value is at most 0.2. For the variant NSSD, the “one-hybrid fitness for binding parS DNA” value was at most 0.2. For the variant GCVS, the “one-hybrid fitness for binding parS DNA” value was at most 0.2. In the case of GNLG, the “one-hybrid fitness for binding parS DNA” value is at most 0.2. For YCTC, the “one-hybrid fitness for binding parS DNA” value is at most 0.2. As for FFSR, the “one-hybrid fitness for binding parS DNA” value was at most 0.2. Regarding KNLD, the “one-hybrid fitness for binding parS DNA” value is at most 0.2.

AVLG: the “one-hybrid fitness for binding parS DNA” value was at most 0.2. For QKRV, the “one-hybrid fitness for binding parS DNA” value was at most 0.2.

As for SQRR, the “one-hybrid fitness for binding parS DNA” value was at most 0.2. As to ICSS, the “one-hybrid fitness for binding parS DNA” value was at most 0.2. Consider TDKG, for which the “one-hybrid fitness for binding parS DNA” value is at most 0.2. On to KSPG, for which the “one-hybrid fitness for binding parS DNA” value is at most 0.2. Take LLKT: the “one-hybrid fitness for binding parS DNA” value was at most 0.2. For DYTR, the “one-hybrid fitness for binding parS DNA” value is at most 0.2. Regarding REDR, the “one-hybrid fitness for binding parS DNA” value was at most 0.2.

As for GDND, the “one-hybrid fitness for binding parS DNA” value was at most 0.2. Regarding ARGV, the “one-hybrid fitness for binding parS DNA” value was at most 0.2. On to HNHS, for which the “one-hybrid fitness for binding parS DNA” value is at most 0.2. With KDRG, the “one-hybrid fitness for binding parS DNA” value was at most 0.2. For QAIF, the “one-hybrid fitness for binding parS DNA” value was at most 0.2. Turning to HSEK, the “one-hybrid fitness for binding parS DNA” value is at most 0.2. As to QGSR, the “one-hybrid fitness for binding parS DNA” value is at most 0.2. As to IYDS, the “one-hybrid fitness for binding parS DNA” value was at most 0.2. To QQKD belongs at most 0.2.

On to DRSF, for which the “one-hybrid fitness for binding parS DNA” value was at most 0.2. Turning to RKGA, the “one-hybrid fitness for binding parS DNA” value is 0.694. In the case of KGWC, the “one-hybrid fitness for binding parS DNA” value is at most 0.2. The figure for TLWF is at most 0.2; for RVDI it is at most 0.2; for QHWT it is at most 0.2. To VTPF belongs at most 0.2.

In the case of REHI, the “one-hybrid fitness for binding parS DNA” value was at most 0.2.

For the variant TTEI, the “one-hybrid fitness for binding parS DNA” value was at most 0.2.

Consider QRHL, for which the “one-hybrid fitness for binding parS DNA” value is at most 0.2. Take TYTQ: the “one-hybrid fitness for binding parS DNA” value was at most 0.2.

In the case of DARM, the “one-hybrid fitness for binding parS DNA” value was at most 0.2. As for QQQL, the “one-hybrid fitness for binding parS DNA” value was at most 0.2. In the case of VLWA, the “one-hybrid fitness for binding parS DNA” value is at most 0.2. In the case of CGDV, the “one-hybrid fitness for binding parS DNA” value is at most 0.2.

Take HTCS: the “one-hybrid fitness for binding parS DNA” value is at most 0.2. MDWG: the “one-hybrid fitness for binding parS DNA” value was at most 0.2. Take SYPF: the “one-hybrid fitness for binding parS DNA” value was at most 0.2. In the case of QSWG, the “one-hybrid fitness for binding parS DNA” value was at most 0.2. As for ALAE, the “one-hybrid fitness for binding parS DNA” value is at most 0.2.

PERR: the “one-hybrid fitness for binding parS DNA” value was at most 0.2.

Consider TAFT, for which the “one-hybrid fitness for binding parS DNA” value is at most 0.2. Consider WDRR, for which the “one-hybrid fitness for binding parS DNA” value is at most 0.2.

Take RYQV: the “one-hybrid fitness for binding parS DNA” value is at most 0.2.

Take MLFC: the “one-hybrid fitness for binding parS DNA” value was at most 0.2.

As to DYLT, the “one-hybrid fitness for binding parS DNA” value was at most 0.2.

Regarding LEAW, the “one-hybrid fitness for binding parS DNA” value was at most 0.2. To RICP belongs at most 0.2; to ITNK, at most 0.2; to PFIC, at most 0.2.

Turning to PHGW, the “one-hybrid fitness for binding parS DNA” value was at most 0.2.

As for RWKG, the “one-hybrid fitness for binding parS DNA” value was determined as 0.901. The figure for ARNA is at most 0.2; for ARYC it is at most 0.2; for QVSN it is at most 0.2. Regarding AYMR, the “one-hybrid fitness for binding parS DNA” value was at most 0.2. On to TSFQ, for which the “one-hybrid fitness for binding parS DNA” value is at most 0.2. Take YMWL: the “one-hybrid fitness for binding parS DNA” value was at most 0.2. To AYNG belongs at most 0.2; to TVTM, at most 0.2.

(Values after a collection of fitness landscapes (doi:10.1016/j.celrep.2020.107928).)
